{"source": "patent US20220024877A1", "about": "(Kansas State University Research Foundation, priority 2018, published 2022)", "system": "S. aureus strain 1471", "assay": "Drop assay against S. aureus strain 1471 with or without copper", "settings": "1:2 drug titration starting at 10 μM"}
{"smiles": "CNC(=S)NN=CC=NNC(=S)NC", "note": "[GTSM, reference compound]", "values": [{"measurement": "MIC: +50 μM Cu", "value": 0.3, "unit": "µM"}]}
